# This is one part of the list. Cleavage of a single-stranded DNA pool by Rep nickase domains was read by sequencing (3 µM enzyme, 1 h, 37 °C); shown is the middle of each 90-letter strand. Uncut reads are compared with the no-enzyme pool on a log2 scale; the lower, the more was cut; hits are not called. Counts are relative to all reads; values above 0 arise when much of the pool is cut.
# Tested on: T1, Rep nickase domain of tomato golden mosaic virus
# T1 sequence (residues 1-124 of Rep, tag left off): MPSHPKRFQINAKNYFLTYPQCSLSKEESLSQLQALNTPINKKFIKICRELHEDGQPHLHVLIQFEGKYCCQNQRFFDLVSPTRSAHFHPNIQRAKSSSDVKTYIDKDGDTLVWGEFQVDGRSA
# Experiment: uncleaved DNA left, log2 of reads against the no-enzyme library (log2 ratio); higher = less cleavage (more negative = more Rep cleavage of the k-mer); sequences stand for … in CTCGTCCG…ACCGGAGA
# Experimental: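 A pool of 90-nt single-stranded DNAs with seven random bases just before the constant AC of the nick site (name = the seven bases) was cut by 3 µM recombinant His6-SUMO-tagged Rep nickase domain (300 nM DNA, 50 mM HEPES pH 8.0, 50 mM NaCl, 1 mM MnCl2, 1 h, 37 °C, three replicates). Uncut DNA was amplified and sequenced.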
row,Sequence,uncleaved DNA left (log2)
1,CACAGGT,-0.00283
2,CGCACAA,0.0363
3,ACAAGAG,-0.117
4,CCGACTG,-0.0977
5,TTCCATC,-0.117
6,ACATATG,0.164
7,TAAGCTC,-0.199
8,GGCGTTA,0.0245
9,TGCCGGA,0.0389
10,TTCCCCA,-0.0141
11,CGCAATC,-0.0502
12,AATTGGA,0.0625
13,GCACGAG,0.151
14,ATGCCCT,-0.0664
15,GTTTCAG,0.0689
16,TATCTGT,-0.0918
17,GGGAATG,0.0356
18,TCGCTGT,0.181
19,CCTTTCG,-0.123
20,TGGATTC,-0.136

row,Sequence,uncleaved DNA left (log2)
1,TTGACGA,-0.0367
2,GTACTCA,0.0929
3,TCTCATT,-0.517
4,CAGAAAT,0.113
5,CCTTGAT,-0.0417
6,TGATTAA,0.0107
7,AACACCA,-0.0192
8,ATGTAAT,-0.0178
9,CTATGTA,-0.0804
10,TAGTCCG,-0.108
11,GCTCCAC,-0.0124
12,ATCTGGC,0.0506
13,CGCTCCC,-0.246
14,TTACGTG,-0.0619
15,CGAAGAC,-0.0586
16,CTGCGGA,0.0631
17,GTTGTCA,0.173
18,TCTTATG,-0.0186
19,CGTGAGA,0.049
20,CTATCTT,-0.781

# Reference: the supplement of paper PMC7826260
